{"source": "the supplement of paper PMC8728848", "test_in_all_cases": "glycan array binding signal (z-score within array); higher = stronger binding", "conditions_in_all_cases": "glycan notation: IUPAC condensed, linker removed", "key": {"[1]": {"biological_target": "Fuc(a1-2)Gal(b1-4)GlcNAc(b1-3)Gal(b1-4)GlcNAc(b1-3)Gal(b1-4)GlcNAc", "outline": "(§1)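 Glycan array binding is given as a within-array Z-score, which can be read as non-binding when negative. The arrays, 3228 of them, came from the Consortium for Functional Glycomics database and were retained only where the protein sequence was available. Z-scores were averaged across arrays of the same protein sequence at different concentrations or buffers and across linkers.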"}, "[2]": {"biological_target": "Fuc(a1-2)Gal(b1-4)GlcNAc(b1-3)GalNAc", "outline": "as §1"}, "[3]": {"biological_target": "Fuc(a1-2)Gal(b1-4)GlcNAc(b1-3)[Fuc(a1-2)Gal(b1-4)GlcNAc(b1-6)]GalNAc", "outline": "as §1"}, "[4]": {"biological_target": "Fuc(a1-2)Gal(b1-4)GlcNAc(b1-6)GalNAc", "outline": "as §1"}, "[5]": {"biological_target": "Fuc(a1-2)Gal(b1-4)GlcNAc6S", "outline": "as §1"}, "[6]": {"biological_target": "Fuc(a1-2)Gal(b1-4)[Fuc(a1-3)]GlcNAc", "outline": "as §1"}, "[7]": {"biological_target": "Fuc(a1-2)Gal(b1-4)[Fuc(a1-3)]GlcNAc(b1-2)Man(a1-3)[Fuc(a1-2)Gal(b1-4)[Fuc(a1-3)]GlcNAc(b1-2)Man(a1-6)]Man(b1-4)GlcNAc(b1-4)GlcNAc", "outline": "as §1"}, "[8]": {"biological_target": "Fuc(a1-2)Gal(b1-4)[Fuc(a1-3)]GlcNAc(b1-2)Man(a1-6)[Fuc(a1-2)Gal(b1-4)[Fuc(a1-3)]GlcNAc(b1-2)Man(a1-3)]Man(b1-4)GlcNAc(b1-4)[Fuc(a1-6)]GlcNAc", "outline": "as §1"}, "[9]": {"biological_target": "Fuc(a1-2)Gal(b1-4)[Fuc(a1-3)]GlcNAc(b1-2)[Fuc(a1-2)Gal(b1-4)[Fuc(a1-3)]GlcNAc(b1-4)]Man(a1-3)[Fuc(a1-2)Gal(b1-4)[Fuc(a1-3)]GlcNAc(b1-2)Man(a1-6)]Man(b1-4)GlcNAc(b1-4)GlcNAc", "outline": "as §1"}, "[10]": {"biological_target": "Fuc(a1-2)Gal(b1-4)[Fuc(a1-3)]GlcNAc(b1-3)Gal(b1-4)[Fuc(a1-3)]GlcNAc", "outline": "as §1"}, "[11]": {"biological_target": "Fuc(a1-2)Gal(b1-4)[Fuc(a1-3)]GlcNAc(b1-3)Gal(b1-4)[Fuc(a1-3)]GlcNAc(b1-3)Gal(b1-4)[Fuc(a1-3)]GlcNAc", "outline": "as §1"}, "[12]": {"biological_target": "Fuc(a1-2)Gal(b1-4)[Fuc(a1-3)]GlcNAc(b1-3)GalNAc", "outline": "as §1"}, "[13]": {"biological_target": "Fuc(a1-2)Gal(b1-4)[Fuc(a1-3)]GlcNAc(b1-3)[Neu5Ac(a2-6)Gal(b1-4)GlcNAc(b1-6)]Gal(b1-4)Glc", "outline": "as §1"}, "[14]": {"biological_target": "Fuc(a1-2)Gal6S(b1-3)GlcNAc", "outline": "as §1"}, "[15]": {"biological_target": "Fuc(a1-2)Gal6S(b1-3)GlcNAc6S", "outline": "as §1"}, "Fuc(a1-2)Gal6S(b1-4)Glc": {"biological_target": "Fuc(a1-2)Gal6S(b1-4)Glc", "outline": "as §1"}, "[16]": {"biological_target": "Fuc(a1-2)Gal6S(b1-4)Glc6S", "outline": "as §1"}, "[17]": {"biological_target": "Fuc(a1-2)Gal6S(b1-4)GlcNAc", "outline": "as §1"}, "Fuc(a1-2)[Gal(a1-3)]Gal": {"biological_target": "Fuc(a1-2)[Gal(a1-3)]Gal", "outline": "as §1"}, "[18]": {"biological_target": "Fuc(a1-2)[Gal(a1-3)]Gal(b1-3)GalNAc", "outline": "as §1"}, "[19]": {"biological_target": "Fuc(a1-2)[Gal(a1-3)]Gal(b1-3)GlcNAc", "outline": "as §1"}, "[20]": {"biological_target": "Fuc(a1-2)[Gal(a1-3)]Gal(b1-3)GlcNAc(b1-2)Man(a1-3)[Fuc(a1-2)[Gal(a1-3)]Gal(b1-3)GlcNAc(b1-2)Man(a1-6)]Man(b1-4)GlcNAc(b1-4)GlcNAc", "outline": "as §1"}, "[21]": {"biological_target": "Fuc(a1-2)[Gal(a1-3)]Gal(b1-3)GlcNAc(b1-2)Man(a1-3)[Fuc(a1-2)[Gal(a1-3)]Gal(b1-3)GlcNAc(b1-2)Man(a1-6)]Man(b1-4)GlcNAc(b1-4)[Fuc(a1-6)]GlcNAc", "outline": "as §1"}, "[22]": {"biological_target": "Fuc(a1-2)[Gal(a1-3)]Gal(b1-3)GlcNAc(b1-3)GalNAc", "outline": "as §1"}, "[23]": {"biological_target": "Fuc(a1-2)[Gal(a1-3)]Gal(b1-4)Glc", "outline": "as §1"}, "[24]": {"biological_target": "Fuc(a1-2)[Gal(a1-3)]Gal(b1-4)GlcNAc", "outline": "as §1"}, "[25]": {"biological_target": "Fuc(a1-2)[Gal(a1-3)]Gal(b1-4)GlcNAc(b1-2)Man(a1-3)[Fuc(a1-2)[Gal(a1-3)]Gal(b1-4)GlcNAc(b1-2)Man(a1-6)]Man(b1-4)GlcNAc(b1-4)GlcNAc", "outline": "as §1"}, "[26]": {"biological_target": "Fuc(a1-2)[Gal(a1-3)]Gal(b1-4)GlcNAc(b1-2)Man(a1-3)[Fuc(a1-2)[Gal(a1-3)]Gal(b1-4)GlcNAc(b1-2)Man(a1-6)]Man(b1-4)GlcNAc(b1-4)[Fuc(a1-6)]GlcNAc", "outline": "as §1"}, "[27]": {"biological_target": "Fuc(a1-2)[Gal(a1-3)]Gal(b1-4)GlcNAc(b1-3)GalNAc", "outline": "as §1"}, "[28]": {"biological_target": "Fuc(a1-2)[Gal(a1-3)]Gal(b1-4)GlcNAc(b1-6)GalNAc", "outline": "as §1"}}, "note": "The other results are listed elsewhere or left out.", "data": [{"binder": "CvGal1 (Crassostrea virginica), A7Y0I5 (protein) MTYQISKISQPFTSYIPNGLHIGKHLLLRGRVSYGTEAFAINLQQNPEPCNGEVAFHFNPRPGEQQCVRNSFDGGSWMDEERDQPHFPFDEGRSFTLRIEVAEEGFRTYVNGKPYVNFSHRLDLGNVHYLYLTEGAEFYDISYQDRYTLPYKSEIPQQMNVGKAVRIRGASQDNDGFSVNFACDPDNENCAFHFNPRPNEGVVVRNANLGGWGDEERDYEAEFPFHPYNYFDAMFICTDDKYLVHVNDKYFTEFNHRGGVDASSFFNIVGNLDIQDVEYFEPLEDDFVKTIPSGLVKGDVLIFRGFMKPGGDTFSINFMNGYSVEDDIAFHLNPRVGEGQVVMNCCMGGAWGDEEREDIPSPLADREPFEVKVVVKKNKFKVYVNGKKCMKFAARGNLEDIKGVNIKGEAYVYEVKLERKLEDSWEYLPGGFRVGGWVVVQAIPKKGSEGFAINFRTGSDEDSDIAFHFNPRLQENCTIRNSCAGGAWGGEERDQPDFPFEKKDTCEIAIQAQPDRFVTYVNGKRYIEFNHRLPLESITCVELTGRADFFEPKFF", "values": [{"measurement": "glycan array binding signal (z-score)", "setting": "[1]", "result": 1.69}, {"measurement": "glycan array binding signal (z-score)", "setting": "[2]", "result": -0.225}, {"measurement": "glycan array binding signal (z-score)", "setting": "[3]", "result": -0.265}, {"measurement": "glycan array binding signal (z-score)", "setting": "[4]", "result": -0.258}, {"measurement": "glycan array binding signal (z-score)", "setting": "[5]", "result": -0.258}, {"measurement": "glycan array binding signal (z-score)", "setting": "[6]", "result": -0.267}, {"measurement": "glycan array binding signal (z-score)", "setting": "[7]", "result": -0.229}, {"measurement": "glycan array binding signal (z-score)", "setting": "[8]", "result": -0.237}, {"measurement": "glycan array binding signal (z-score)", "setting": "[9]", "result": -0.188}, {"measurement": "glycan array binding signal (z-score)", "setting": "[10]", "result": -0.283}, {"measurement": "glycan array binding signal (z-score)", "setting": "[11]", "result": -0.265}, {"measurement": "glycan array binding signal (z-score)", "setting": "[12]", "result": -0.197}, {"measurement": "glycan array binding signal (z-score)", "setting": "[13]", "result": -0.244}, {"measurement": "glycan array binding signal (z-score)", "setting": "[14]", "result": -0.275}, {"measurement": "glycan array binding signal (z-score)", "setting": "[15]", "result": -0.213}, {"measurement": "glycan array binding signal (z-score)", "setting": "Fuc(a1-2)Gal6S(b1-4)Glc", "result": -0.115}, {"measurement": "glycan array binding signal (z-score)", "setting": "[16]", "result": -0.259}, {"measurement": "glycan array binding signal (z-score)", "setting": "[17]", "result": -0.294}, {"measurement": "glycan array binding signal (z-score)", "setting": "Fuc(a1-2)[Gal(a1-3)]Gal", "result": -0.261}, {"measurement": "glycan array binding signal (z-score)", "setting": "[18]", "result": -0.256}, {"measurement": "glycan array binding signal (z-score)", "setting": "[19]", "result": 2.98}, {"measurement": "glycan array binding signal (z-score)", "setting": "[20]", "result": 2.23}, {"measurement": "glycan array binding signal (z-score)", "setting": "[21]", "result": 0.478}, {"measurement": "glycan array binding signal (z-score)", "setting": "[22]", "result": 0.341}, {"measurement": "glycan array binding signal (z-score)", "setting": "[23]", "result": 1.59}, {"measurement": "glycan array binding signal (z-score)", "setting": "[24]", "result": 2.82}, {"measurement": "glycan array binding signal (z-score)", "setting": "[25]", "result": 2.89}, {"measurement": "glycan array binding signal (z-score)", "setting": "[26]", "result": 1.42}, {"measurement": "glycan array binding signal (z-score)", "setting": "[27]", "result": 1.53}, {"measurement": "glycan array binding signal (z-score)", "setting": "[28]", "result": -0.283}]}]}
